In the RNAGym collection of RNA variant scans (doi:10.1093/nar/gkz1192) one finds self-cleavage data, which are given here for 34 variants.

B1: CPEB3 Ribozyme (parent)
chain: UAACAGGGGGCCACAGCAGAAGCGUUCACGUCGCAGCCCCUGUCAGAUUCUGGUGAAUCUGCGAAUUCUGCUGUAUAUCUC

The source gives no read counts; variants with many changes may rest on few reads.

Variants of B1 are the subject of this data set. Briefly: self-cleavage, relative activity (ratio to wild type); higher = more cleavage; in vitro, sequencing. An outline of the steps:
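After error-prone PCR and barcoding, CPEB3 ribozyme mutant libraries were transcribed with T7 RNA polymerase at 37°C for 5 hours, then given 15 min with DNase I before an EDTA stop, and they cleaved during both steps. Reverse transcription with template switching preceded Illumina sequencing. Relative activity divides a variant's cleaved/total read fraction by the unmutated ribozyme's. At least 5 reads were required per variant, and three batches were averaged.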
Consider UAACAGGGGGCCACAGCAGAAGCGUUCGCGUCGCAGCCCCCGACAGAUUCUGGUGAAUCAGCGAAUUCUGCUGUAUAUCUC [A28G U41C U43A U60A], for which the self-cleavage is 0.19.
The value for UAACAGGGGGCCACAGCAGAAGCGUUCGCGUCGCAGCCCCUGCCAGAUUCUGGUGAAUCUGCGGUUUCUGCUGUAUAUCUC [A28G U43C A64G A65U] was 0.24.
The value for UAACAGGGGGCCACAGCAGAAGCGUUCGCGUCGCAGCCCCCGUCAGAUUCUGGUGAAUCUGCGAAUUCAGCUGUAUAUCUC [A28G U41C U69A] was 0.17.
Then UAACAGGGGGCCACAGCAGAAGCGUUCGCGUCGCAGCCCCCGUCAGAUUCAGGUGAAUCUGCGGACUCUGCUGUGUAUCUC [A28G U41C U51A A64G U66C A75G], with 0.18.
Turning to UAACAGGGGGCCACAGCAGAAGCGUUCGCGUCGCAGCCCCUGUCAGACUCUGGUUAAUCUGCGAAUUCUGCUGUAUAUCUC [A28G U48C G55U], the self-cleavage was 0.2.
The value for UAACAGGGGGCCACAGCAGAAGCGUUCGCGGCGCAGCCCGUGUCAGAUUCUGGUGAAUCUGCGAAUUCUGCUGUAUACCUC [A28G U31G C40G U78C] was 0.19; that for UAACAGGGGGCCACAGCAGAAGCGUUCGCGCCGCAGCCCCUGUCAGAUUCUGGUGAAUCUGCGAACUCUGCUGUAUAUCUC [A28G U31C U66C] was 0.14; that for UAACAGGGGGCCACAGCAGAAGCGUUCGCGGCGCAGCCCCUGUCAGAUUCUGGUGAAUCUGCGAAUUCCGCUGUAUAUCUC [A28G U31G U69C] was 0.07.
As to UAACAGGGGGCCACAGCAGAAGCGUUCGCGACGCAGCCCCUGUCAGGUUCUGGUGAAUCUGCGAAUUCAGCUGCAUAUCUC [A28G U31A A47G U69A U74C], the self-cleavage was 0.09.
The value for UAACAGGGGGCCACAGCAGAAGCGUUCGCGUCACAGCCCCUGUCAGAUUCUGGUGAAUCUGCGAAUCCUGCCGUAUAUCUC [A28G G33A U67C U72C] was 0.06.
The value for UAACAGGGGGCCACAGCAGAAGCGUUCGCGUCGCAGCCCCUGACAGAUUCUGGUGAAUCUGCGAAUUCCGCUGUAUAUCAC [A28G U43A U69C U80A] was 0.31; that for UAACAGGGGGCCACAGCAGAAGCGUUCGCGUCGCAGCCCCAGUCAGAUUCUGGUGAAUCUGCGAAUUCCGCUGUAUAUCUC [A28G U41A U69C] was 0.23.
The value for UAACAGGGGGCCACAGCAGAAGCGUUCGCGUCGCAGCCCCUGUCAGACUCUGGUGAAUCUGCGAAUUCUGCCGUAUAUCUC [A28G U48C U72C] was 0.26; that for UAACAGGGGGCCACAGCAGAAGCGUUCGCGUCGCAGCCCCUGUCAGACUCUGGUGAAUCUGCAAAUUCUGCUGUAUAUCUC [A28G U48C G63A] was 0.18; that for UAACAGGGGGCCACAGCAGAAGCGUUCGCGUCGCAGCCCCAGUCAGAUUCUGGUGAAUCUGCGAAUACUGCUGUAUAUCUC [A28G U41A U67A] was 0.1.
For UAACAGGGGGCCACAGCAGAAGCGUUCGCGACGCAGCCCCUGUCAGGUUCUGGUGAAUCUGUGAAUUCUGCUGUAUAUCUC [A28G U31A A47G C62U], the self-cleavage was determined as 0.19.
In the case of UAACAGGGGGCCACAGCAGAAGCGUUCGCAUCGCAGCCCCUGCCAGAUUCUGGUGUAUCUGCGAAUUCUGCUGUAUAUCUC [A28G G30A U43C A56U], the self-cleavage worked out at 0.07.
The value for UAACAGGGGGCCACAGCAGAAGCGUUCGCGCCGCAGCCCCUGUCAGAUCCUGGUGAAUCUGCGGAUUCAGCUGUAUAUCUC [A28G U31C U49C A64G U69A] was 0.05; that for UAACAGGGGGCCACAGCAGAAGCGUUCGCGUCGCAGCCCCUGUCAGAUUCUGGAGAAUCUGCGAGUUCUGCUGUAUAUCUC [A28G U54A A65G] was 0.21.
Then UAACAGGGGGCCACAGCAGAAGCGUUCGCGUCGCAGCCCCUGUCAGAUUCUGGUGAAUCUGCGAAUUCUUCUGUGUAUCGC [A28G G70U A75G U80G], with 0.07.
Consider UAACAGGGGGCCACAGCAGAAGCGUUCGCGUCGCAGCCCCUGUCAGAUCCUGGUGAAUCUGCGAAUUCUGCUGUAUAACUC [A28G U49C U78A], for which the self-cleavage turned out to be 0.15.
Take UAACAGGGGGCCACAGCAGAAGCGUUCGCGUCGCAGCCCCUGUCAGAUUCCUGUGAAUCUGCGAAUUCUGCUGUAUAUCUC [A28G U51C G52U]: the self-cleavage is 0.63.
For UAACAGGGGGCCACAGCAGAAGCGUUCGCGUCACGGCCCCUGACAGAUUCUGGUGAAUCUGCGAAUUCUGCUGUAUAUCUC [A28G G33A A35G U43A], the self-cleavage is 0.13.
The value for UAACAGGGGGCCACAGCAGAAGCGUUCGCGACGCAGCCCCUGUCAGAUUCUGGUGAAUCUGCGUAUUCUGCUGUAUAUCUC [A28G U31A A64U] was 0.49; that for UAACAGGGGGCCACAGCAGAAGCGUUCGCGUCACAGCCCCUGUCUGAUUCUGGUGAAUCCGCGAAUUCUGCUGUAUAUCUC [A28G G33A A45U U60C] was 0.18; that for UAACAGGGGGCCACAGCAGAAGCGUUCGCGUCGCAGCCCCGGUCAGAUUCUGGUGAAUCUGCGAAUUCUGCUGUGUAUCUC [A28G U41G A75G] was 0.34.
The value for UAACAGGGGGCCACAGCAGAAGCGUUCGCGUCGCAGCCCCUGUCAGAUUCUGCUGAAUCUGCGAAUCAUUCUAUAUAUCUC [A28G G53C U67C C68A G70U G73A] was 0.21; that for UAACAGGGGGCCACAGCAGAAGCGUUCGCGUCGCAGCCCCUGUCAGACUCUGGUGAGUCUGCGAGUUCUGCUGUAUAUCUC [A28G U48C A57G A65G] was 0.19; that for UAACAGGGGGCCACAGCAGAAGCGUUCGCGUCUCAGCCCCUGUCAGAUUCUGGAGAAUCUGCGAAUUCUGCUGUAUAUCUC [A28G G33U U54A] was 0.21.
Then UAACAGGGGGCCACAGCAGAAGCGUUCGCGUCGCAGCCCCCGUCAGAUUCUGGUGAAUCUGUGAAUUCUGCUGUAUAUCUC [A28G U41C C62U], with 0.12; and UAACAGGGGGCCACAGCAGAAGCGUUCGCGUCGCAGCCCCAGUCAGAUUCUGGUGAAUCUGUGAAUUCUGCUGUAUAUCUC [A28G U41A C62U], with 0.47.
On to UAACAGGGGGCCACAGCAGAAGCGUUCGCAUCGCAGCCCCUGUCAGAUUCUGGUGAAUCUGCGAAUUCUGCCGUAUAUCUC [A28G G30A U72C], for which the self-cleavage was 0.13.
The value for UAACAGGGGGCCACAGCAGAAGCGUUCGCGUCGCAGCCCCUGUCAGAUUCUGGUAAAUCCGCGAAUUCUGCUGUAUAUCUC [A28G G55A U60C] was 0.16; that for UAACAGGGGGCCACAGCAGAAGCGUUCGCGUCGCAGCCCCUGUCAGAUUCUGGAGAUUCUGCGAAUUCUGCUGUAUAUCUC [A28G U54A A57U] was 0.53.
